About 540 (0.36%) of roughly 150,000 compounds showed an effect of 50% or more. The list shows a part of the results.

The assay deals with Plasmodium falciparum. The assay is described as follows: Primary screen in NF54 nanoGlo assay, in single point, at 2uM, 72h; a lower Z score goes with more inhibition. The class given is functional, Erythrocyte. The following applies: timepoint 72 hour.
The % Inhibition is the drop in the measured response relative to a control, in per cent. Consider `CC1CN(C(=O)Nc2nc3ccccc3s2)CC(C)O1` (stereo unspecified), for which the “% Inhibition” value was -2% and the Z score was determined as 0.23.

Take `Cc1noc(CN(C)C2CCN(Cc3ccco3)CC2)n1`: the “% Inhibition” value is reported as -7% and the Z score came to 1.55.

Take `O=C(NC[C@H]1CCCO1)c1nc2n(c1Br)CCC2`: the “% Inhibition” value is reported as -16% and the Z score was found to be 1.61.

On to `Cc1cnccc1N1CCC(C(=O)N2CCOC[C@@H]2C)CC1`, for which the “% Inhibition” value is recorded as -6% and the Z score was found to be 0.78.

`CC1(C)CC(NC(=O)CCC2CCCCC2)CC(C)(C)N1`: the “% Inhibition” value is recorded as -12% and the Z score was 1.63.

Turning to `Cc1ncsc1CCOC(=O)[C@@H]1CCCN1C(=O)CC(C)(C)C`, the “% Inhibition” value was -9% and the Z score was found to be 1.47.

As for `CC(C)CN1CC(=O)C(c2nc3ccccc3[nH]2)=C1N`, the “% Inhibition” value was 8% and the Z score was -0.95.

Regarding `Cc1ccc(-c2nnc(N3CCC4(CCOC4)C3)n2CC2CCCO2)s1` (stereo unspecified), the “% Inhibition” value is recorded as -3% and the Z score came to 0.32.

Turning to `CC(=O)N(Cc1ccccc1C)c1nc2ccccc2n(CC(=O)Nc2ccc(F)cc2)c1=O`, the “% Inhibition” value was -2% and the Z score stood at 0.27.

Take `O=C(c1ccc[nH]1)N1CCC(Oc2cccc(C(F)(F)F)c2)CC1`: the “% Inhibition” value turned out to be 13% and the Z score was -1.85.

For the compound `CC(C)(C)[C@H](NCC(=O)NC(=O)NCC(F)(F)F)c1cccs1`, the “% Inhibition” value is -38% and the Z score amounted to 4.49.

With `CC(C)C(=O)Nc1nc(-c2ccc(S(=O)(=O)N3CCOCC3)cc2)cs1`, the “% Inhibition” value is reported as -10% and the Z score is 1.41.

With `CC1CN(CC2CN(C)CCO2)CCN1C(=O)Nc1ccccc1` (stereo unspecified), the “% Inhibition” value was -8% and the Z score is 1.51.

In the case of `O=C(NS(=O)(=O)Oc1ccccc1F)OC[C@@H]1CCCN2CCCCC12` (stereo partly specified), the “% Inhibition” value is given as -6% and the Z score was found to be 0.83.

For the compound `CCc1cc(-c2cccc(C(=O)N3C[C@@H]4[C@@H](CN(C)C)[C@@H]4C3)c2)nc(C)n1`, the “% Inhibition” value worked out at 0% and the Z score was determined as 0.

With `O=c1[nH]c2cccc(N3CCN(Cc4ncccc4Cl)CC3)c2[nH]1`, the “% Inhibition” value is listed as -4% and the Z score came out at 0.59.

Take `O=C1[C@@H](Nc2ccn(CC(F)(F)F)n2)CCN1c1ccccc1`: the “% Inhibition” value was -2% and the Z score is 0.3.

Regarding `Nc1ccccc1NS(=O)(=O)C(F)(F)F`, the “% Inhibition” value is reported as 1% and the Z score is -0.12.

Regarding `CCCCS(=O)(=O)Oc1ccc2c(c1)ncn2C`, the “% Inhibition” value is -11% and the Z score turned out to be 2.08.

As for `Cc1nnc(CN2CCC[C@H](c3cc(O)ncn3)C2)s1`, the “% Inhibition” value is 4% and the Z score was -0.81.

Regarding `CCC(C)NC(=O)c1coc(CN(Cc2ccccc2OC)C(C)C(C)C)n1` (stereo unspecified), the “% Inhibition” value is recorded as 6% and the Z score is listed as -1.08.

As to `Cc1ccccc1C(=O)N(Cc1cccc(F)c1)c1ccc(CC(=O)NCc2ccc(F)cc2)cc1`, the “% Inhibition” value is reported as -1% and the Z score is 0.16.

As for `Cc1cccc(S(=O)(=O)N2C[C@@H](F)C[C@H]2C(=O)N2CCc3ccccc3C2)c1`, the “% Inhibition” value is listed as 3% and the Z score is reported as -0.3.

For the compound `CCn1nc(C)cc1C(=O)N1C(C)COC(c2ccccc2)C1C` (stereo unspecified), the “% Inhibition” value is listed as 3% and the Z score is given as -0.3.

`C=CCN(CC(=O)Nc1nc(-c2ccccc2)cn1-c1ccc(C)cc1)C(=O)Cc1ccccc1`: the “% Inhibition” value came out at 3% and the Z score was -0.33.

With `O=C(COc1ccc(Br)cc1)N1CCN(S(=O)(=O)c2ccc3ccccc3c2)CC1`, the “% Inhibition” value is on record as -3% and the Z score came to 0.36.

For the compound `OCc1ccc(CNc2ccc(Cc3nnc4ccccn34)cc2)o1`, the “% Inhibition” value came out at 1% and the Z score is listed as -0.08.

With `C[C@]1(O)CCN(C(=O)CCc2ccc(-c3ccccc3)cc2)C[C@@H]1O`, the “% Inhibition” value was -13% and the Z score is on record as 1.23.

For `CN(Cc1c[nH]cn1)[C@H]1CCc2ccccc2C1`, the “% Inhibition” value is given as -15% and the Z score came to 1.74.

Take `Cc1ccc(CN(C(C)C)S(=O)(=O)[C@@H](C)C(F)(F)F)o1`: the “% Inhibition” value worked out at 9% and the Z score was -0.76.

Regarding `CCOc1ccc(NC(=O)c2cc3nccc(-c4cnn(C)c4C)n3n2)cc1`, the “% Inhibition” value is 4% and the Z score is listed as -0.55.

As to `N#Cc1c(N)sc2c1CCN(CC(=O)Nc1ccc3c(c1)OC1(CCCCC1)O3)C2`, the “% Inhibition” value is given as -9% and the Z score is listed as 0.84.

Take `COCCn1nnnc1[C@]1(N2CCCC2)CCN(C(=O)CCC2CCCCC2)C1`: the “% Inhibition” value is recorded as -5% and the Z score worked out at 0.63.

Consider `CCCC(=O)Nc1ccc2c(c1)CN(C(=O)c1cc(C)ccc1C)[C@H](C(=O)N(C)C)C2`, for which the “% Inhibition” value is reported as -1% and the Z score came to 0.19.

In the case of `CN(C)C(=O)c1ccccc1OC(F)F`, the “% Inhibition” value was -7% and the Z score was 1.02.

Regarding `COc1ccc2c(c1)OC(C)CN(CC(=O)NC(C)c1nc3cc(C)ccc3[nH]1)C2` (stereo unspecified), the “% Inhibition” value is recorded as 1% and the Z score is recorded as -0.08.

With `O=C(NC1CCCCC1CO)c1ccc2[nH]ncc2c1` (stereo unspecified), the “% Inhibition” value is -5% and the Z score is given as 0.78.

`O=C(CC1OCCCO1)N1CCCC1CC(O)c1ccc(F)cc1` (stereo unspecified): the “% Inhibition” value was -10% and the Z score is reported as 1.41.

Take `CCC(CC)(C(=O)Nc1n[nH]c2c1CNCC2)c1ccccc1`: the “% Inhibition” value was -4% and the Z score is listed as 0.85.

On to `O=C(NC[C@H]1CCCO1)c1nnc(-c2cccc(Cl)c2)o1`, for which the “% Inhibition” value is reported as -12% and the Z score was 1.81.

For `O=C(Nc1ccc(C(=O)N2CCC[C@H](c3nc4ccccc4s3)C2)cc1)c1cccs1`, the “% Inhibition” value is listed as -9% and the Z score worked out at 1.45.

Consider `Cc1cnc(C2CCC2)n1CC1CCN(C(=O)Nc2ccccc2)CC1`, for which the “% Inhibition” value amounted to 1% and the Z score is -0.19.

`Cn1cc(CC(=O)NCc2ccc(Cl)cc2)c2cccnc21`: the “% Inhibition” value was -13% and the Z score is reported as 1.51.

Consider `FC(F)(F)c1cc(N2CCN(CCCn3ccnc3)CC2)ccc1Cl`, for which the “% Inhibition” value turned out to be 0% and the Z score came out at 0.06.

`CON(C)S(=O)(=O)c1cnn(C)c1`: the “% Inhibition” value is 2% and the Z score is given as -0.33.

Take `Cc1cc(-c2cc(S(=O)(=O)N3CCOCC3)c(C)s2)on1`: the “% Inhibition” value is -6% and the Z score stood at 0.57.

Turning to `CC(=O)N1CC(C(=O)NC(C)c2ccccc2)CCC1c1ccc(F)c(C)c1` (stereo unspecified), the “% Inhibition” value is reported as -4% and the Z score stood at 0.57.

Consider `CC1(C)CC2(CC(c3ccccc3)Oc3cc(O)ccc32)NC(=O)N1` (stereo unspecified), for which the “% Inhibition” value came to 3% and the Z score is given as -0.39.

Turning to `COc1ccc(OC)c(NC(=O)Cn2cc(OC)c(=O)cc2CN2CCCCCC2)c1`, the “% Inhibition” value was -8% and the Z score is recorded as 1.38.

As for `O=C(CCc1nc2ccccc2[nH]1)N1C[C@@H](CO)[C@H](c2ccccn2)C1`, the “% Inhibition” value is listed as -6% and the Z score is listed as 1.19.

Regarding `O=C(Cc1cccc(C(F)(F)F)n1)N[C@H]1CCOC2(CCCC2)C1`, the “% Inhibition” value is on record as -1% and the Z score amounted to 0.28.

As for `COc1ccc(-c2cn(CC(=O)Nc3c(C)cccc3C)nc2N2CCOCC2)cc1`, the “% Inhibition” value is -5% and the Z score came out at 0.57.

Consider `Cc1cc(CN2CCC(C)CC2)c(C)c(CN2CC(c3ccccn3)C2)c1`, for which the “% Inhibition” value is on record as -5% and the Z score is reported as 0.84.

Source of the values: ChEMBL document CHEMBL4888484, “Replenishing the malaria drug discovery pipeline: Screening and hit evaluation of the MMV Hit Generation Library 1 (HGL1) against asexual blood stage Plasmodium falciparum ,using a nano luciferase reporter read-out” (2022).
